Among the data in article PMC12136788 are binding signal values, retold here.

The labels stand for the following.
T1: UNK ZnF1-3 (human, UniProt Q9C0B0 31-174)
T1 sequence: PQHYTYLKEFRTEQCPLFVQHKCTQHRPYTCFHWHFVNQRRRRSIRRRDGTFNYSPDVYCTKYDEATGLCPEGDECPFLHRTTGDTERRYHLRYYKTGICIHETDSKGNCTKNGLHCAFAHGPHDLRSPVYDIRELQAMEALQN

B1: chr8:15480645:15480646:+_ENSG00000104723_ENST00000503731|hu_hu|FALSE|FALSE (ssRNA)
RNA: GGGAGUUCUACAGUCCGACGAUCCAUUCGGAAGAUUGAGCGUCUGGAACUCCAUUCCAUCAGCUGCUCUACUUUUUCAGCUAAAAGAUUCUCCUUUUUCUUCUGUCCUCCCCCGAGCUGGAUGCAGAGCAGCAGCAGCAGGAGCAACAGAGGAUUGAGCAUCA
B2: 129699467_129699587_1627_CDS_ENSMUSG00000026349_ENSMUST00000027587|mouse|control|control (ssRNA)
RNA: GGGAGUUCUACAGUCCGACGAUCGCCUUCAUCAGAAGAGCUGUGUCUUUCCGAGGAUGCCACUUUGAUUUUCAUCUUCAGCUCCUCUUUGCUGGGACCUUUGUCAGGCGGGGGGAUGGGAAUGCGGAGCUUCAGUGAUCCACUCAACAGAGGAUUGAGCAUCA
B3: chr10:99542671:99542672:+_ENSMUSG00000019966_ENSMUST00000105283|mus_mus|motif|central (ssRNA)
RNA: GGGAGUUCUACAGUCCGACGAUCACUAGUGUCAGAUGCCACCAUAAAGUCCUUAAAGGCAUCAAUGGAUCUAUUGAAAAUACGGAAGAAUUCUUCAGGAGUAAAGGAUCUAGUUUCUGGCCUCUUCGGAGAUUCUUUUAUAUUCAACAGAGGAUUGAGCAUCA
B4: chr6:136600977:136600978:-_ENSG00000029363_ENST00000527536|hu_hu|FALSE|FALSE (ssRNA)
RNA: GGGAGUUCUACAGUCCGACGAUCCGAGACCUAGAACUGUAUCGCUUCUUUCUAGAAUGAGAUCUUGAUCUUGAUCGAGAACUAGACUGUGAUCUAGACUUUGACCUUGAAGAAUGUGAUCUAGAAUUGGAGCGACCCAUUUCUCAACAGAGGAUUGAGCAUCA
B5: chr2:61275951:61275952:+_ENSG00000162928_ENST00000295030|hu_hu|FALSE|FALSE (ssRNA)
RNA: GGGAGUUCUACAGUCCGACGAUCGUUUUCAUUGGAUUGUACAUUCAUUUCUUUGUGAGAAAUAAUUUUAAAAAGUACUCUAAAGUAUUGUUCAACUGCAGGCAAACAUGAAAGAUAUCAAAGAUCUUGCUUUUCUCCAUCUUUCAACAGAGGAUUGAGCAUCA
B6: chr5:24093644:24093645:+_ENSMUSG00000038181_ENSMUST00000088295|mus_mus|FALSE|FALSE (ssRNA)
RNA: GGGAGUUCUACAGUCCGACGAUCUUCCCAACCCUAUGUCUGGUCUUCAGUGGCCAUGGUGCUGAUACCCUCAGUAAAAUACUAAUGUCUAUGUGAGCAAUGCCACUCCCUACGGGGAUUGCAGUCUGUAGUCCAGGAAAAAGACAACAGAGGAUUGAGCAUCA
B7: chr15:27661301:27661302:-_ENSMUSG00000022263_ENSMUST00000090247|mus_mus|motif|central (ssRNA)
RNA: GGGAGUUCUACAGUCCGACGAUCCCCACCCCCAACACACACAGAACCAUAAAGCUCACUUGCGAAGUAUGUGCUUUUUCGGUAUAUUUAUUACAUGUAUAACAGAAGUCUUCAUAAAUAGUUGCAGAAAAUGUUAAAGCCACACAACAGAGGAUUGAGCAUCA
B8: 120675030_120675150_4139_CDS_ENSMUSG00000025153_ENSMUST00000055655|mouse|control|control (ssRNA)
RNA: GGGAGUUCUACAGUCCGACGAUCGGCAUGUCCUUUGAGCACUGUGUGCACUAGCAGGAAACCACCUUCCUUGAGGGCAGCUACCAUGUUGUCCAGGGCCAAGGCUGGAUCCCCCAGGGUGGCUAAUGCACAGUUGCACACCAGCAACAGAGGAUUGAGCAUCA
B9: 38066641_38066761_1075_CDS_ENSG00000156735_ENST00000287322|human|control|control (ssRNA)
RNA: GGGAGUUCUACAGUCCGACGAUCAGGGGGUGACUGGGGAGAGCCACUGCUAGGCCAUGGUGAAGUACUUUCAGUCAUGUAGAGAUUGCCGGGUGGUGCUGAGGGCGCUGAUGAAGGCCAGGGAUAACGGCCACCCAUUCCAUACAACAGAGGAUUGAGCAUCA
B10: chr4:122741918:122741919:-_ENSG00000145386_ENST00000274026|hu_mus|FALSE|FALSE (ssRNA)
RNA: GGGAGUUCUACAGUCCGACGAUCGUCUGGCUGCCUCUUCAUGUAACCCACUUUAGGUUUACAUUUAACCUCCAUUUCCCUAAGGUACGUGUGAAUGUCUUCUUGAUAGUCAGGUACUUCAUUAACGUUCACUGGCUUGUCUUCCAACAGAGGAUUGAGCAUCA
B11: 70590105_70590225_2005_CDS_ENSG00000189091_ENST00000302516|human|control|control (ssRNA)
RNA: GGGAGUUCUACAGUCCGACGAUCGGAGAUGAUUCUGACAGUGUUGUCCACAAGCCCCACAGCCAGGAAGCGAGACCGCUGCUCUCCAGGGGGUACAUUGGCCAGACUCAUGCACACCACAUCUGCUGACAUCUCCUUCCGUUCCAACAGAGGAUUGAGCAUCA
B12: chr14:78183846:78183847:+_ENSG00000119705_ENST00000557342|hu_hu|hu_hu_hu_mus_False|58_58 (ssRNA)
RNA: GGGAGUUCUACAGUCCGACGAUCUCUCAGAAAUCUUUCUUCAUCAGAUGUUUGAGCUCCGUGCAAAGCCUUUGCUCUUCUAGUGUGAACGUGGAUCUAUGGGAGGGAAAGCACUGUCAGAAAAGGUAAUUUUUUUUUUAAAGACAACAGAGGAUUGAGCAUCA
B13: 67948388_67949015_857_CDS_ENSMUSG00000079614_ENSMUST00000025421|mouse|control|control (ssRNA)
RNA: GGGAGUUCUACAGUCCGACGAUCACCAGAGGAAGUAAGUUCUUUCCUCAGAGGUUUUAAUGUGAAAAUUCUUACAUCUUUGGUUGCUACUGCCAGGAUGUGGAAAGAUCUUCCCAAAUUUGGAGCAAACGCGAUAUCAUGGACCAACAGAGGAUUGAGCAUCA
B14: chr2:217001844:217001845:+_ENSG00000079246_ENST00000392132|hu_hu|hu_hu_hu_mus_False|58_108 (ssRNA)
RNA: GGGAGUUCUACAGUCCGACGAUCACCGACUUGAGGAUUAGAUCUUUUGUCAUAAGCAUAUCGGACGAUGGCGACCAUGUCUAAGUCAUCCAAAGCAUGAACGAGAGAGGAAAGGGCAACAGCUGCCGCCUCAUCAUCCUUUGCCAACAGAGGAUUGAGCAUCA
B15: 17271496_17271616_280_CDS_ENSG00000026025_ENST00000224237|human|control|control (ssRNA)
RNA: GGGAGUUCUACAGUCCGACGAUCGGAGCGCGUGGCAUACACGCCGCCCGGGGACGAGGCGUAGAGGCUGCGGCUGGUGCUGGGGCGCAGCGCGCUGCCCAGGCUGUAGGUGCGGGUGGACGUAGUCACGUAGCUCCGGCUGGACAACAGAGGAUUGAGCAUCA
B16: 49561091_49561211_87_3pUTR_ENSMUSG00000037892_ENSMUST00000035931|mouse|control|control (ssRNA)
RNA: GGGAGUUCUACAGUCCGACGAUCGGCGGAGUCUGCAGUCUGUGUUUCCCGGGCGAUUCUUGAUUUUCCCCCCUUUCCUUUUCUCUGCUCCGCUGCAGACUAAACACCGGUGAUUGCUGACUCCAGUCUGAAAAUCUCUACAACCAACAGAGGAUUGAGCAUCA
B17: chr4:140556289:140556290:+_ENSMUSG00000036622_ENSMUST00000037055|mus_mus|mus_mus_mus_hu_False|38_48 (ssRNA)
RNA: GGGAGUUCUACAGUCCGACGAUCGAUGGAGCUCACCAGGCCCCCUUUUGCCGUGCAGAACCCUGUGCGGGUCACCACUGCCAGGACACGGGGUCCCACGUAGGCUCGGGCCUGCAAGAUGAGGGUCCCGCAGAAGAGUGUGUGCAACAGAGGAUUGAGCAUCA
B18: 33281170_33284196_2202_CDS_ENSG00000083642_ENST00000315596|human|control|control (ssRNA)
RNA: GGGAGUUCUACAGUCCGACGAUCGAAAAUUUGUAGUGCAGCUUCUGCUACUUUUUCAUCAUCCAUUUUCAGACAAGCCAGUAAUGAUUCAAAUGUUUCAGCAGAAUGAAAUGAGAUGGGAUGUGUAAAUGAGAGUACCUUAAGCAACAGAGGAUUGAGCAUCA
B19: 10106795_10116523_2921_CDS_ENSMUSG00000056763_ENSMUST00000071087|mouse|control|control (ssRNA)
RNA: GGGAGUUCUACAGUCCGACGAUCAAAAGUAGUAGCAUCUAAGCCCUUAGGCGAUGGUCUUCUGACAGGGGCUUGUACCCGAUGUCUAGCCAUGUCAAAUAUAUCCAUUGGGUUCCUCUCUCUUUUCCUCAUGGGGAUCUCGUCCAACAGAGGAUUGAGCAUCA
B20: chr16:94637918:94637919:+_ENSMUSG00000040785_ENSMUST00000117648|mus_hu|FALSE|FALSE (ssRNA)
RNA: GGGAGUUCUACAGUCCGACGAUCAUCCUGGUGUGCAGCUCUGGAAGAUUUAGAAAACUGUUUCUCCAAGAUGUUCUUCAAAUCUGCUGGUAAAGUCAAUGGUGAACUAGAACUGAACUUUUCUGAUUCAUUGUUUCGAGAUUUCAACAGAGGAUUGAGCAUCA
B21: chr11:87793471:87793472:-_ENSMUSG00000020483_ENSMUST00000020775|mus_mus|mus_mus_mus_hu_False|28_38 (ssRNA)
RNA: GGGAGUUCUACAGUCCGACGAUCUGGACUUGAAAAUAAAAGAAUAAGCUGGAUCCCCCACCCCCCCACAUUGUCAACCCUACACGAGAGUUUUGAAUGAUUCAUAAGAAUCAGCAGAGCUCAAACGGCAAUGACCACCCCACCCAACAGAGGAUUGAGCAUCA
B22: chr11:74504092:74504093:-_ENSMUSG00000020745_ENSMUST00000021091|mus_hu|motif|central (ssRNA)
RNA: GGGAGUUCUACAGUCCGACGAUCCUUCCUUUUUAAAAACUGAAUAUGCCUCUUCAUAGCCAUUUGAACGAAGAUAAUCUGCGGUAGCUCGAUUUAGUUCAUCUCGUUGUCUCUGGGACAGCACCAUCUUGGCUGUAAUGUCAACAACAGAGGAUUGAGCAUCA

The other results are listed elsewhere or left out.

This assay deals with T1, UNK ZnF1-3. Nature of the assay: nsRBNS (natural sequence RNA bind-n-seq); RBNS binding buffer (assumed for nsRBNS): 25 mM Tris pH 7.5, 150 mM KCl, 3 mM MgCl2, 0.01% Triton X-100, 500 ug/ml BSA, 20 U/ml SUPERase-In, 4 C; UNK is unkempt and MSI1 is Musashi-1; names of the RNAs are library labels; protein concentration not given here; high values mean tight binding.
In turn, B1 gave a binding signal of 0.755 enrichment R.
To B2 belongs 0.754 enrichment R; to B3, 1.14 enrichment R.
Under B4 stands 0.212 enrichment R.
To B5 belongs 0.54 enrichment R; to B6, 0.929 enrichment R.
Turning to B7, the binding signal was found to be 2.28 enrichment R.
To B8 belongs 0.382 enrichment R; to B9, 1.16 enrichment R; to B10, 0.306 enrichment R.
For the molecule B11, the binding signal was determined as 0.612 enrichment R.
To B12 belongs 1.49 enrichment R; to B13, 0.981 enrichment R; to B14, 2.05 enrichment R.
To B15 belongs 0.289 enrichment R.
To B16 belongs 0.762 enrichment R; to B17, 1.02 enrichment R.
Molecule B18 showed a binding signal of 1.02 enrichment R.
To B19 belongs 0.72 enrichment R; to B20, 0.794 enrichment R.
Under B21 stands 1.59 enrichment R; under B22, 0.634 enrichment R.
